In all, about 33,000 sequences were measured (“E-score (-0.5 to 0.5)”: median about -0.035, highest 2% from about 0.34 on). The list shows a part of the results.
These sequences were tested against T1, Mot3 (UniProt P54785) (assay: PBM E-score (8-mer binding enrichment) (E-score (-0.5 to 0.5)); higher = stronger / more preferred TF binding; most listed sequences are background and not binding sites). Details: protein concentration: 200 nM; construct: GST-full length.
T1 sequence: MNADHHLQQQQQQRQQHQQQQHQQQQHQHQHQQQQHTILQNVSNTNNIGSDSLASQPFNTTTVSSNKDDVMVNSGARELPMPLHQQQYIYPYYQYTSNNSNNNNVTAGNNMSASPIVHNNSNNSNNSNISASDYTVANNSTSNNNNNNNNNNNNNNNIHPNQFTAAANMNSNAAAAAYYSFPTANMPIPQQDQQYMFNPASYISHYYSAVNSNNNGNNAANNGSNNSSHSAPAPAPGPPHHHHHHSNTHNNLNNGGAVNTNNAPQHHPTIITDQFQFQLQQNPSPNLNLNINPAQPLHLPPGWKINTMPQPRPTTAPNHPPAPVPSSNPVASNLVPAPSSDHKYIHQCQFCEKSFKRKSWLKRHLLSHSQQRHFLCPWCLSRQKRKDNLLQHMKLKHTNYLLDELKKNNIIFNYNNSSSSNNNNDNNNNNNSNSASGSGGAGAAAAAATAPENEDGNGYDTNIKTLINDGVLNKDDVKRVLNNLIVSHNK
Experimental: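 Universal 'all 10-mer' protein binding microarrays (Agilent AMADID 015681) probed with GST-tagged S. cerevisiae TFs (full-length or DBD) made by in vitro transcription/translation (PURExpress), about 100-200 nM. Bound TF was detected with fluorescent anti-GST. Each ungapped 8-mer (which stands for itself and its reverse complement) is scored by the PBM enrichment score (E-score), a modified Wilcoxon-Mann-Whitney statistic from -0.5 to +0.5, computed with the Universal PBM Analysis Suite. Scale: above 0.35 generally sequence-specific binding.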

Sequence | PBM E-score
GTACTGTA | 0.158
AAACTGAC | -0.125
GATTTTCC | 0.192
CTTGTTAA | 0.355
AACTGCCT | 0.0139
ATCCCCTC | -0.141
CGTACGAA | 0.0691
AAACTGTC | -0.107
CGGGGTGC | -0.154
AAACTGCT | -0.15
GAGATGTA | 0.208
CTGCTGTA | 0.0529
GAAGAAGA | 0.109
CCTGCTTA | 0.0186
TCTGAACA | 0.0777
GAAACGTC | -0.111
CTATTAGA | -0.105
ATGGTCTA | -0.205
CCAATAGG | 0.145
AAGGGTTG | 0.134
CTCGCATA | -0.143
ACTAGTCA | -0.181
ATACAGAT | 0.0248
GTGCCAAA | -0.0184
CCCGATAC | -0.146

Sequence | PBM E-score
CCGGCCCA | -0.301
CTACGAAC | 0.113
AAGTTACC | 0.114
AAATATCA | 0.055
AAAATAAA | 0.117
CGGTCGAC | -0.109
GTGTGCGA | -0.0362
GTTGAGGA | 0.0128
ATCGAGTA | 0.0643
AGTTATGA | -0.113
TCCACTCA | -0.137
CTTTGTGC | 0.206
ATACCCTC | -0.09
CCGCATTA | -0.0268
CGGCGAAC | -0.223
TGATGCCA | -0.077
CGGTTGTA | 0.0332
ATTCAAAA | 0.0615
GTTAATTA | 0.215
CTTTAACA | 0.284
AGAGTGAT | 0.105
CGCGGCGA | -0.124
AACGGACG | -0.227
AGCCGGGA | -0.104
ACGGTTCT | -0.0543

Sequence | PBM E-score
ATGTCAGC | 0.0858
ATGTTCTC | 0.0354
CTACTTTC | 0.188
CCGGCTCA | -0.162
ATGCCGAG | -0.102
CTTCTTTA | 0.166
CACACGAA | 0.165
AAACCCGC | 0.00067
ATGGACTA | -0.158
CGTATGAA | -0.00092
ATGCAATC | -0.0367
ATTCCAAT | 0.113
AAGGCGCG | 0.252
CAGGCCGC | -0.203
GTAAATTA | 0.292
ACCTTCAG | 0.195
ACCAGAAG | 0.0955
ACAGACTA | 0.0937
TGGTTACA | 0.126
ATACCTTC | 0.0827
AAATTGGT | -0.00703
ATCTTCAG | -0.134
GTGTGGCA | -0.236
ATTTCCGG | -0.219
CTGCCGGA | -0.192

Sequence | PBM E-score
GCAGGCTA | -0.0385
ACGTGGGC | 0.0308
CACCTTGG | -0.037
ACGCCGAC | -0.0706
AAATATCC | 0.0319
CGGGTGGA | -0.0775
TCGGTTAA | 0.0678
CTGCGAGC | -0.2
ACTGAGAC | -0.00296
ATGGCTTC | -0.153
ATTACGCC | 0.102
CTCGATTC | -0.0008
GCAAGTAA | 0.31
AACCGAAT | 0.0425
ATCTGTCA | -0.136
AGAGGAGA | -0.23
CAACGAAC | 0.0278
AGAAATTA | 0.145
AACTACTT | 0.0912
CAAGCGGG | -0.0609
GGGGTCAC | -0.401
GTGGAACA | -0.0281
CTGCCGGC | -0.246
CTACCTAC | 0.188
CACAGGTA | 0.352

Sequence | PBM E-score
ACCCTTCA | 0.127
CCTTATAG | 0.243
ACTAAGCC | -0.172
CCATATCG | -0.129
TAGATTGA | 0.0705
TACCCACA | -0.107
GAAACAGA | -0.0175
CAATAACC | 0.0521
ATGCCGGA | -0.181
GGCCGGTA | -0.0424
TAAGGGTA | -0.132
TCTCCCCA | -0.121
CATACCTA | -0.014
ACGTGCCG | 0.144
CAATAGAG | -0.157
AGCACGGG | -0.166
ACCGAAGG | -0.147
CGCGTAGA | 0.316
AGAAGTAT | 0.102
GAGGTGGA | -0.182
GCCGAGGA | -0.00379
AGAAGGTC | -0.0584
GGAGCAGA | -0.313
CCCCCGGG | -0.199
TCGTGACA | -0.0171

Sequence | PBM E-score
ACCACAGC | -0.197
AACTCGGC | -0.0608
GGGTCCAC | -0.372
ACTGCAGA | -0.0584
CTGCGGAC | -0.128
CTAGTTAA | 0.225
CTGGAAAA | -0.038
CGACAGAG | -0.205
AAGACTGG | -0.0478
CGAGTCCG | -0.196
TACTAAGA | -0.0572
AGATAGGC | 0.235
TGGAGCCA | -0.163
CCTCGTCG | -0.0873
CAGGGGTC | -0.118
TCCTAGGA | 0.0441
TGGGATAA | -0.0725
ACTTTACC | 0.0687
TATGCACA | 0.0239
GATATTCC | -0.156
GGCGCGTA | 0.202
CCCCCCTA | -0.277
CGCATATA | -0.00057
ATGATTCC | -0.0953
GAGTCGAA | -0.0456

Sequence | PBM E-score
CCAGCATA | -0.186
ACACTTCA | 0.0662
AGTCAAAA | 0.0274
CTTCAGGA | -0.0384
AGAGCTCG | -0.0842
AGGCTTGC | 0.17
GTCTCGGA | -0.131
CCTGATAG | -0.027
ATCGGTCC | -0.281
CGCTAAAA | 0.103
GTGCGCAC | -0.0815
CCCATAGA | -0.197
AAGAGCAA | -0.223
ACATCGGT | -0.00649
AAGTGACG | 0.0422
GAAAGTAA | 0.133
ACCGCCAG | -0.0496
CTTCATGC | -0.135
AGCGTCAC | -0.224
AGATCAGG | -0.0288
GTTCTATA | 0.0934
CTTGACCC | -0.0185
